Test results reported in PubChem BioAssay AID624296 (National Center for Advancing Translational Sciences (NCATS), 2012).
Out of some 350,000 compounds screened, about 9,900 (2.8%) were called active. This list was built around the results that the source calls inconclusive (neither active nor inactive); the mix of calls is not that of the screen. Calls come from the whole dose curve; as a rule, active = well fitted activation curve with a large enough effect; inconclusive = small, poorly fitted or top-dose-only effect; inactive = no such curve, though single readings can be large or run the other way. Potencies of inconclusive entries are left out as doubtful fits.
Potency is the fitted concentration of half-maximal effect; tags give direction and shape of the fitted curve.

Assay: A quantitative high throughput screen for small molecules that induce DNA re-replication in MCF 10a normal breast cells. For activity, positive = re-replication: % of control where 0% means no effect. Note: nearly all actives have a fitted effect of over 50% in size.
Settings: MCF 10A DNA re-replication, Hoechst nuclear intensity, 48 h; activity, positive = re-replication: at 46.1 µM (top of the series)
For `CC1=CC(=O)N(c2ccc(C)cc2)C1c1ccc(Cl)cc1` (configuration not stated), the Potency was inconclusive [activator, single point]. In the case of `O=C(NCc1ccco1)c1cc(-c2ccncc2)nc2ccccc12`, the “activity, positive = re-replication” value is reported as inactive: -17.4%. In the case of `O=C(O)c1cc(-c2ccc(Br)s2)nc2ccccc12`, the “activity, positive = re-replication” value is reported as inactive: 6.15%. With `O=C(Nc1cccc(S(=O)(=O)N2CCCCC2)c1)c1ccc(OCC2CCCO2)cc1` (configuration not stated) the “activity, positive = re-replication” value was inactive: 7.42%. In the case of `COc1cccc(-c2cc(C(F)(F)F)n3nc(C(=O)N4CCCCC4c4cccnc4)cc3n2)c1` (configuration not stated), the Potency is reported as inconclusive [activator, single point]. In the case of `Cc1cc(C(=O)N2CCN(c3ccccc3O)CC2)c(C)o1`, the “activity, positive = re-replication” value is reported as inactive: 10%. With `Cc1csc(=O)n1CCC(=O)OCC(=O)NNC(=O)c1ccc(Br)cc1` the “activity, positive = re-replication” value was inactive: -8.04%. In the case of `Cc1ccccc1OCCC(=O)Nc1cc(S(=O)(=O)N2CCOCC2)ccc1OC(C)C`, the “activity, positive = re-replication” value is reported as inactive: 6.59%. In the case of `CCCC(=O)NC(=S)NNC(=O)c1ccc([N+](=O)[O-])cc1`, the Potency is reported as inconclusive [activator, partial curve, poor fit]. For `O=C(c1cc(Sc2cccc(Cl)c2)nc2ccccc12)N1CCN(c2ccccn2)CC1`, the Potency was inconclusive [activator, full curve, poor fit]. In the case of `COC(=O)c1cc(-c2ccc(NC(C)=O)cc2)nc2ccccc12`, the Potency is reported as inconclusive [activator, single point]. With `COc1ccc(OC)c(/C(O)=C/C(=O)C(=O)Nc2ccccc2OC)c1` the “activity, positive = re-replication” value was inactive: 5.65%. With `Cc1ccc(-c2nc(CN3CCCCC3c3cccc(F)c3)c(C)o2)o1` (configuration not stated) the Potency was inconclusive [activator, single point]. For `CN(c1ccccc1)c1ccc(/C=C(\C#N)c2nnc3n2CCCCC3)cc1[N+](=O)[O-]`, the Potency was inconclusive [activator, partial curve, poor fit]. With `N#CCCN(C(=O)COC(=O)c1cccc(S(=O)(=O)Nc2ccc([N+](=O)[O-])cc2)c1)c1ccccc1` the Potency was inconclusive [activator, single point]. In the case of `Cc1ccc(C)c(C(=O)COC(=O)Cn2[nH]c(=O)c3ccccc3c2=O)c1`, the “activity, positive = re-replication” value is reported as inactive: 5.4%. For `CCC(C(=O)NCc1ccc(F)cc1)N(CCc1ccccc1)C(=O)c1snc(C(N)=O)c1N` (configuration not stated), the Potency was inconclusive [activator, single point]. With `COC(=O)c1cccc(NC(=O)NC2CCCN2S(=O)(=O)c2ccc(Cl)cc2)c1` (configuration not stated) the Potency was inconclusive [activator, single point]. With `C[C@H](NC(=O)c1nc[nH]c1C(=O)N[C@@H](C)C(=O)OC(C)(C)C)C(=O)OCc1ccccc1` the Potency was inconclusive [activator, single point]. For `COc1ccc2cc(C(=O)Nc3ccc(S(N)(=O)=O)cc3)sc(=O)c2c1OC`, the Potency was inconclusive [activator, single point]. In the case of `CCC(C(=O)NCCCN1CCN(CCCNC(=O)C(CC)c2ccccc2)CC1)c1ccccc1` (configuration not stated), the Potency is reported as inconclusive [activator, partial curve, poor fit]. With `CCN(CC)CCN(C(=O)c1ccc(C(=O)c2ccccc2)cc1)c1nc2c(OC)cccc2s1` the “activity, positive = re-replication” value was inactive: -0.343%. In the case of `S=C(NC1CC1)NC1CCCc2ccccc21` (configuration not stated), the Potency is reported as inconclusive [activator, partial curve, poor fit]. In the case of `c1ccc(-c2csc(=Nc3cccnc3)n2CC2CCCO2)cc1` (configuration not stated), the Potency is reported as inconclusive [activator, partial curve, poor fit]. With `CC(C)COC(=O)c1ccc(NC(=O)C2C3C=CC(C3)C2C(=O)O)cc1` (configuration not stated) the Potency was inconclusive [activator, partial curve, poor fit]. With `COc1ccc(Br)cc1/C=C(\C(=O)O)c1ccc(S(=O)(=O)N2CCCCC2)s1` the Potency was inconclusive [activator, single point]. With `COc1ccc(CC(N)C(=O)NC2C(CO)OC(n3cnc4c(N(C)C)ncnc43)C2O)cc1` (configuration not stated) the Potency was inconclusive [activator, full curve, poor fit]. With `Cc1ccc(/C=C2\SC(=S)N(/N=C/c3cc([N+](=O)[O-])ccc3O)C2=O)o1` the “activity, positive = re-replication” value was inactive: 7.48%. With `CN(CC(=O)NCc1ccccc1)CC(=O)Nc1ccc(Cl)c(C(F)(F)F)c1` the Potency was inconclusive [activator, partial curve, poor fit]. With `COc1ccc(N(C)C(=O)c2oc(=O)c3ccccc3c2-c2ccc(C)cc2)c(OC)c1` the Potency was inconclusive [activator, partial curve, poor fit]. For `c1ccc(Cn2c(-c3ccccc3)nc3nc4ccccc4nc32)cc1`, the Potency was inconclusive [activator, partial curve]. In the case of `O=C(CSc1nc2ccc(Nc3nc(N4CCOCC4)nc(N4CCOCC4)n3)cc2s1)Nc1ccccc1Cl`, the Potency is reported as active: 18.4 µM. For `COc1ccc(N2CCN(C(=S)Nc3cccc(C)c3)CC2)cc1`, the “activity, positive = re-replication” value was inactive: -8.79%. In the case of `Cc1cc2c(nn1)CCc1nonc1-2`, the Potency is reported as inconclusive [activator, full curve, poor fit]. With `CC1CCCN(c2ccc([N+](=O)[O-])cc2C(=O)c2ccccc2)C1` (configuration not stated) the Potency was inconclusive [activator, full curve, poor fit]. With `COc1ccc(NC(=O)c2ccc3c(c2)OCO3)cc1S(=O)(=O)N1CCOCC1` the “activity, positive = re-replication” value was inactive: -8.12%. For `C=CCn1c2ccccc2c2nnc(SCCCn3c(=O)[nH]c4ccccc43)nc21`, the Potency was active: 20.6 µM. With `CC1(C)C(CSc2nc3ccccc3[nH]2)C1(Cl)Cl` (configuration not stated) the Potency was inconclusive [activator, single point]. For `CCOc1cc(C(=O)NCc2ccccc2)ccc1OCC(=O)N1CCOCC1`, the “activity, positive = re-replication” value was inactive: 3.83%. For `CCC1CCCCN1C(=S)NC(=O)c1cc(S(=O)(=O)N2CCOCC2)ccc1C` (configuration not stated), the “activity, positive = re-replication” value was inactive: 6.97%. In the case of `COCc1cc(=O)[nH]c2cc(NC(=O)c3cccc(OC)c3)c(C)cc12`, the “activity, positive = re-replication” value is reported as inactive: 1.16%. With `O=C(CCc1nc2ccccc2c(=O)[nH]1)N1CCN(S(=O)(=O)c2ccc(F)cc2)CC1` the Potency was inconclusive [activator, partial curve, poor fit]. In the case of `COc1ccc(NC(=O)CN(C)C(=O)CNC(=O)c2ccc3c(c2)OCO3)cc1`, the “activity, positive = re-replication” value is reported as inactive: -13%. In the case of `CCOc1nc(OCC)c2[nH]c(C(=O)O)c(Br)c2n1`, the “activity, positive = re-replication” value is reported as inactive: 15.5%. With `CCN(CC)CCNC(=S)Nc1ccc2nc(N3CCOCC3)cc(C)c2c1` the “activity, positive = re-replication” value was inactive: 21.6%. In the case of `CC1Sc2ccc(C(=O)NCc3cccc(C(F)(F)F)c3)cc2NC1=O` (configuration not stated), the Potency is reported as inconclusive [activator, single point]. For `COc1ccccc1-c1nc2cc3ccccc3cc2nc1-c1ccccc1`, the Potency was inconclusive [activator, partial curve, poor fit]. For `Cc1cccc(OCCNc2ccc([N+](=O)[O-])cn2)c1`, the “activity, positive = re-replication” value was inactive: 13.1%. For `Cc1nc(S/C(=C/c2ccc(-c3cccc(Cl)c3)o2)C(=O)O)n[nH]1`, the Potency was inconclusive [activator, partial curve]. For `Cc1ccc(-c2cc(C(=O)N/N=C/c3c[nH]c4ccccc34)[nH]n2)cc1`, the Potency was inconclusive [activator, full curve, poor fit]. With `COC(=O)c1cc(-c2cccs2)nn1-c1ccccc1` the Potency was inconclusive [activator, partial curve, poor fit]. With `Cc1nc(SCC(=O)N(CC(C)C)C2CCS(=O)(=O)C2)c2c(C)c(C)sc2n1` (configuration not stated) the “activity, positive = re-replication” value was inactive: 1.57%. With `Oc1c(C(c2ccccc2Cl)N2CCCC2)ccc2cccnc12` (configuration not stated) the Potency was inconclusive [activator, single point]. With `CCOCCOC(=O)c1[nH]c2c(c1C)C(=O)CC(c1cccs1)C2` (configuration not stated) the Potency was inconclusive [activator, full curve, poor fit]. For `CC1(C)CC(=O)C=C(NCCN2CCN(C(=O)Nc3ccccc3)CC2)C1`, the Potency was inconclusive [activator, single point]. In the case of `CCN1C[C@@H]2[C@@H]3C(=O)N(Cc4ccccc4)C(=O)[C@@H]3[C@](Cc3ccccc3)(C(=O)OC)N2C1=NC1CCCCC1`, the “activity, positive = re-replication” value is reported as inactive: -4.94%. With `COc1c(C)cc(Br)cc1C(=O)Nc1ccc(S(N)(=O)=O)cc1` the Potency was inconclusive [activator, partial curve, poor fit]. For `CNC(=S)NNC(=O)c1sc2cc(C(F)(F)F)cnc2c1-c1cccnc1`, the Potency was inconclusive [activator, single point]. In the case of `CC(C)(C)SC(C(=O)N1CCOCC1)c1ccc(Br)cc1` (configuration not stated), the Potency is reported as inconclusive [activator, partial curve, poor fit]. With `N#Cc1cnn2ccc(-c3ccc4c(c3)CCC4)nc12` the Potency was inconclusive [activator, single point]. For `Cc1nc(-c2ccc(NC(=O)C(C)(C)C)cc2)c(-c2ccccc2)o1`, the “activity, positive = re-replication” value was inactive: 0.371%. With `CCCN(CCC)C(=O)CSc1nc2n[nH]c(C)c2c(=N)n1-c1ccc(OCC)cc1` the Potency was inconclusive [activator, single point]. For `Cc1c(OCC(=O)NCCN2CCOCC2)ccc2c1oc(=O)c1ccccc12`, the “activity, positive = re-replication” value was inactive: -1.23%. With `CCc1ccc2n(-c3ccc(OC)cc3)c([S-])c(C(=O)Nc3cc(C)cc(C)c3)[n+]2c1` the Potency was inconclusive [activator, full curve]. With `COc1ccccc1-c1oc2ccccc2c1C#CCCCCO` the Potency was inconclusive [activator, single point]. For `Cc1cc(C)c2nc(-c3ccccn3)cc(C(=O)n3cccn3)c2c1`, the “activity, positive = re-replication” value was inactive: 24.8%. In the case of `O=C(Nc1cccc2c1CCCC2)C1CCN(c2nnnn2-c2ccccc2)CC1`, the activity, positive = re-replication is reported as inactive: 70.7% [at 0.0737 µM].
